Source: PubChem BioAssay AID662 (National Center for Advancing Translational Sciences (NCATS), 2007)
The whole screen tested about 71,000 compounds, of which about 1,800 (2.5%) were called active. Inconclusive results, whose numbers are uncertain, are shown with a selection of clear calls. The call rests on the fitted dose curve; in most records, active means well fitted activation curve with a large enough effect in the signal ratio, with a control signal flat (not every such curve was filed as active); inconclusive means small, poorly fitted or top-dose-only effect, or effect the other way, or a change in a side signal; inactive means flat fitted curve, though single readings scatter; the % refers to the signal ratio. Potencies of inconclusive entries are doubtful fits and often do not repeat.

test: Cell signaling CRE-BLA (Fsk stim); conditions: CHO CRE-bla reporter (cAMP response element driving beta-lactamase), forskolin EC10, beta-lactamase ratio; activity change, negative = inhibition: at 38.2 µM (top of the series) unless noted; on activity change, negative = inhibition: % of control where 0% means no effect
Outline: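 Reporter-gene assay: CHO cells with beta-lactamase behind cAMP responsive elements, co-treated with compound and EC10 NKH 477 for 3 hours at 37 degrees Celsius. Activity came from the 460/530 nm CCF4 emission ratio.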
Potency means the concentration at half of the fitted maximal effect; tags describe the fitted curve by direction and shape.

| SMILES | activity change, negative = inhibition | Potency |
| --- | --- | --- |
| CCOC(=O)c1c(CN(C)C)oc2cc(CN(C)C)c(O)c(CSc3ccccc3)c12 | inconclusive: -11.2% | – |
| COc1cc2c(cc1OC)C(C(=O)O)C(c1cc(Br)c(O)c(OC)c1)N(C)C2=O (stereo not drawn) | inactive: 3.33% | – |
| CN1CCC[C@@H]1c1cccnc1.O=C(O)c1ccccc1O.O=C([OH2+])c1ccccc1O.O=C([OH2+])c1ccccc1O.O=C([OH2+])c1ccccc1O.[Cu] | – | inconclusive: 1 µM [rising, full curve, poor fit] |
| Cc1ccc(S(=O)(=O)N(C)Cc2ccc(-c3nnco3)cc2)cc1 | inactive: -4.09% | – |
| Cc1nc2ncnn2c(C)c1CCC(=O)NCc1ccco1 | inconclusive: -9.71% | – |
| O=c1c2ccccc2oc2nc(C3CCCCC3)n(Cc3ccco3)c(=O)c12 | inconclusive: -5.98% | – |
| O=C(OCc1cccs1)c1ccccc1NS(=O)(=O)c1ccc2c(c1)OCCO2 | inactive: 6.51% | – |
| O=C(CSc1nnc2c(Cl)cc(Cl)cn12)N1CCN(S(=O)(=O)c2ccccc2)CC1 | inconclusive: -22.1% | – |
| S=C(c1ccc2c(c1)OCO2)N1CCCC1 | inactive: 0.404% | – |
| O=C(CCSc1ccc(Cl)cc1)N1CCN(c2ncccn2)CC1 | inactive: 5.07% | – |
| O=C(COC(=O)c1ccccn1)c1ccc(Br)cc1 | inconclusive: -8.83% [at 7.6 µM] | – |
| Cn1c(=O)n(CCc2ccccc2)c(=O)c2c1nc1n2CCCN1c1ccccc1 | inconclusive: -5.45% | – |
| COc1ccccc1C1C(C#N)=C(N)Oc2cc(C)n(CCCn3ccnc3)c(=O)c21 (stereo not drawn) | – | inconclusive: 10 µM [rising, partial curve, poor fit] |
| CCOc1cc(C)c(C(C)C)cc1S(=O)(=O)N1CCOCC1 | inconclusive: -1.48% | – |
| Cn1c(C(=O)N2CCc3ccccc3C2)cc2c(=O)n3ccccc3nc21 | – | inconclusive: 12.6 µM [rising, partial curve] |
| COc1ccc(-n2c(=O)c(C)nc3cnc(Nc4cccc(OC)c4)nc32)cc1 | – | inconclusive: 5.01 µM [rising, partial curve] |
| CCNc1ncc2nc(-c3cc(F)cc(F)c3)c(=O)n(Cc3ccc(F)cc3)c2n1 | – | inconclusive: 3.98 µM [rising, partial curve] |
| N#CC1=C(N)N(c2ccccc2)C2=C(C(=O)CCC2)C1c1cccs1 (stereo not drawn) | inactive: -6.51% | – |
| COc1cccc(Cn2c(=O)c(C)nc3cnc(N4CCN(C)CC4)nc32)c1 | inconclusive: 20.6% | – |
| COc1cc(C(=O)OCCN2CCOCC2)cc(OC)c1OC | – | inconclusive: 12.6 µM [rising, single point] |
| CSCCC(NC(C)=O)C(=O)Oc1ccc2c3c(c(=O)oc2c1)CCCC3 (stereo not drawn) | – | inconclusive: 1.58 µM [rising, partial curve] |
| CCC[C@@H]1C[C@@]1(CCC)C(NC(=O)c1ccco1)c1ccc(Cl)cc1 (stereo partly drawn) | inactive: -0.731% | – |
| CCNC(=O)c1cc2c(=O)n3cccc(C)c3nc2n1C | – | inconclusive: 25.1 µM [rising, partial curve] |
| CC(C(=O)O)N1C(=O)c2cccc3cccc1c23 (stereo not drawn) | inconclusive: -26.1% | – |

| SMILES | activity change, negative = inhibition | Potency |
| --- | --- | --- |
| COC(=O)c1ccc2nc(NC(=O)CN3C(=O)CCC3=O)sc2c1 | inactive: 8.59% | – |
| Cc1ccc2nc(SC(C)C(=O)N3CCCC3)[nH]c2c1 (stereo not drawn) | inconclusive: -4.48% | – |
| CCOc1ccccc1NC(=O)CN(c1ccc(OC)cc1)S(=O)(=O)c1c(C)noc1C | – | inconclusive: 5.01 µM [rising, partial curve] |
| O=C(O)CCSCc1ccccc1 | inconclusive: 6.89% [at 7.6 µM] | – |
| O=C(O)CCc1ccc(-c2ccc(Br)cc2)o1 | inconclusive: -21.8% | – |
| CCC(C)NC(=O)CC(NS(=O)(=O)c1ccc(Cl)cc1)c1ccco1 (stereo not drawn) | inconclusive: -22.1% | – |
| COc1ccc(NC(=O)C2C3C=CC4(CN(Cc5cccnc5)C(=O)C24)O3)c(OC)c1 (stereo not drawn) | – | inconclusive: 0.1 µM [falling, single point] |
| CCC(=O)N1CCc2cc(S(=O)(=O)NCCC(=O)N3CCN(Cc4ccccc4)CC3)ccc21 | inconclusive: 18.9% | – |
| COC(=O)[C@@]1(Cc2ccc(OC)cc2)[C@H]2c3cc(C(=O)N(C)C)n(CCF)c3C[C@H]2CN1C(=O)c1ccccc1 | inconclusive: -12.7% | – |
| CCOc1ccccc1-c1nc(-c2cc3ccc(C)cc3[nH]c2=O)no1 | inactive: 1.65% | – |
| CCOC(=O)N1CCC(NC(=O)c2ccc(CNS(=O)(=O)c3ccc(F)cc3)cc2)CC1 | inactive: 15.5% | – |
| CC(C)(C#N)N([O-])C=C[N+](=O)C(C)(C)C#N | inconclusive: 22.7% [at 7.6 µM] | – |
| C=C(C)COc1ccc2c3c(c(=O)oc2c1OCC(=C)C)CCC3 | – | inconclusive: 10 µM [rising, single point] |
| O=C1c2ccccc2S(=O)(=O)N1Cc1nnc(-c2ccccc2Br)o1 | – | inconclusive: 25.1 µM [rising, single point] |
| COc1ccc2c(c1)C(=O)N(c1ccccc1OC)C(=O)C2 | – | inconclusive: 15.8 µM [falling, single point] |
| c1nc(NC2CCNCC2)c2cc(-c3ccc4c(c3)OCO4)ccc2n1 | inactive: -3.89% | – |
| NS(=O)(=O)c1ccc(NC2(C(=O)O)CCCC2)cc1 | inconclusive: -5.83% [at 7.6 µM] | – |
| Cc1cccc([C@@H]2CN(C)CCc3c2cc(O)c(O)c3Cl)c1 | – | inconclusive: 6.31 µM [falling, full curve, poor fit] |
| CCOc1cc(N2CCOCC2)c(OCC)cc1NC(=O)c1cc(-c2ccco2)nc2ccccc12 | – | inconclusive: 2.51 µM [rising, full curve] |
| CCOc1cc(N2CCOCC2)c(OCC)cc1NC(=O)CCC1CCCC1 | inactive: 3.94% | – |
| N#CCCn1c(=O)c(-c2cccs2)nc2cnc(Oc3cccc(Cl)c3)nc21 | – | inconclusive: 3.16 µM [rising, partial curve] |
| CCCOc1ccc(-c2nnn(CC(=O)Nc3cccc(C(=O)OC)c3)n2)cc1 | – | inconclusive: 3.98 µM [rising, single point] |
| CCOC(=O)N1CCN(C(=O)C2CC(c3ccccc3OC)=NO2)CC1 (stereo not drawn) | – | inconclusive: 0.00794 µM [falling, full curve, poor fit] |
| O=C(Cn1nnc2ccccc2c1=O)NC1CCCc2ccccc21 (stereo not drawn) | inconclusive: -8.25% | – |
